# Among all 360,000 compounds or so, about 6,000 (1.7%) were called active. The inconclusive results got no clear call from the source; some entries with a clear call stand among them for comparison. Calls follow the shape of the dose curve; as a rule, active = well fitted cell-killing curve with a large enough effect; inconclusive = small, poorly fitted or top-dose-only effect, or effect the other way; inactive = flat fitted curve, though single readings scatter. Potencies of inconclusive entries are left out as doubtful fits. Some structures have more than one record in an assay (separate samples or runs), and their calls can disagree.
# Assay: qHTS for induction of synthetic lethality in tumor cells producing 2HG: qHTS for the HT-1080-NT fibrosarcoma cell line;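 also: NT is the 2HG producing partner of a matched IDH1 knockdown line; nearly all actives have a fitted effect of over 55% in size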;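 as to activity, negative = less viability: 0% = DMSO-treated cells and -100% = media-only wells without cells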
# Details: HT-1080-NT fibrosarcoma viability, CellTiter-Glo ATP luminescence, 48 h; activity, negative = less viability: at 46.1 µM (top of the series) unless noted
# How it was run: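 Toxicity toward the 2HG-producing NT line was scored as %Activity, normalised to DMSO and no-cell wells, from CellTiter-Glo luminescence after 48 hours' treatment.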
# Potency is read from the fitted curve at half-maximal effect; tags tell the direction and shape of the fitted curve.
Structure (SMILES),Potency,"activity, negative = less viability"
N#Cc1ccc(NC(=O)c2cc(=O)c3ccccc3o2)cc1,"inconclusive [rising, single point]",
COc1ccc(OC)c(NC(=O)Nc2nc(C(N)c3ccccc3Cl)cs2)c1 (configuration not stated),"inconclusive [cytotoxic, single point]",
CCOc1ccc(NC(=S)N(CCN2CCOCC2)Cc2cc3cc4c(cc3[nH]c2=O)OCCO4)cc1,,inactive: -21.4%
CCOCc1nnc(NC(=O)C2CCN(C(=O)C3CC(=O)N(c4ccc(C)cc4)C3)CC2)s1 (configuration not stated),,inactive: 0.741%
CCOCCCn1c(SC(C(=O)Nc2cc(C)ccc2C)c2ccccc2)nnc1-c1ccc(Cl)cc1 (configuration not stated),"inconclusive [rising, single point]",
Cc1ccc2[nH]c3c(NCCN4CCOCC4)ncnc3c2c1,,inactive: -7.77%
CCCCNC(=O)C(NC(=O)c1ccc2ccccc2c1)C(=O)c1ccccc1 (configuration not stated),,inactive: -22.7%
CCn1c2ccccc2c2cc(NC(=O)CSc3nnc(-c4cccc(OC)c4)n3N)ccc21,,inconclusive: -30.9% [cytotoxic]
Cc1nc(Sc2ccc(Br)cc2)c(C#N)c(C)c1[N+](=O)[O-],"inconclusive [cytotoxic, single point]",
N#C/C(=C/c1ccc(-c2cc([N+](=O)[O-])ccc2Cl)o1)C(N)=O,"inconclusive [rising, partial curve]",
O=C(Nc1ccc(N2CCN(C(=O)c3ccco3)CC2)cc1)c1cc(Br)ccc1Cl,"inconclusive [cytotoxic, single point]",
COc1cc(C(=O)N2CC(=O)Nc3ccccc32)cc(OC)c1OC,"inconclusive [cytotoxic, single point]",
COC(=O)C1=CN(c2cc(C)cc(C)c2)C=C(C(=O)OC)C1c1ccc(OC)c(O)c1,"inconclusive [cytotoxic, single point]",
O=C(c1cc2ccccc2oc1=O)N1CCCN(C(=O)c2cc3ccccc3oc2=O)CC1,,inactive: 6.16%
CCCCCCCCn1c2c(c(=N)c3ccccc31)CCC2,active: 23.1 µM,
CCCCOc1cc(C(=O)OCCN(CC)CC)ccc1N,"inconclusive [rising, full curve, poor fit]",
O=C(O)c1ccccc1/C=N/Nc1ccc(S(=O)(=O)N2CCCC2)cc1[N+](=O)[O-],active: 13 µM,
O=C(O)c1c[nH]c2nccnc12,,inactive: -0.841%
COc1ccccc1NC(=O)COc1ccc(/C=N/NC(=O)CSCc2cc(C)cc(C)c2)cc1,"inconclusive [cytotoxic, single point]",
CCCNC(=O)C1(C)CCN(Cc2ccc(-c3ccccc3)o2)C1 (configuration not stated),,inconclusive: -31.5% [cytotoxic]
CCOC(=O)c1c(-c2ccccc2)oc2ccc(O)c(CN3CCCC3)c12,"inconclusive [cytotoxic, single point]",
Cn1cnc([N+](=O)[O-])c1Sc1nc2ccccc2[nH]1,"inconclusive [cytotoxic, partial curve]",
CC(C)c1cc(C(=O)NNC(=S)NCc2ccco2)c(O)c(C(C)C)c1,"inconclusive [cytotoxic, single point]",
CCN(C(=O)COc1ccc(C)cc1OC)c1cccc2ccccc12,,inactive: -21.3%

Structure (SMILES),Potency,"activity, negative = less viability"
CC(NNC(=S)N1CCN(c2ccccn2)CC1)c1nccc2ccccc12 (configuration not stated),,inactive: -18.5%
CN(c1ccccc1)S(=O)(=O)c1cc(C(=O)Nc2ccccc2N2CCOCC2)ccc1Cl,,inactive: -2.59%
CC1=CC(C)(C)NC(=S)N1c1cccc(C)c1,active: 8.91 µM,
Nc1nonc1-c1nc2ccccc2n1CC(=O)Nc1ccccc1,"inconclusive [cytotoxic, partial curve]",
CC1C/C(=N\Nc2ccc(S(N)(=O)=O)cc2[N+](=O)[O-])CC(C)(C)C1 (configuration not stated),"inconclusive [cytotoxic, single point]",
CCOc1cc(C)c(S(=O)(=O)NC2CCCCC2)cc1C,,inactive: -15.4%
COc1ccc(C(O)c2ncc(-c3ccc4ccccc4c3)[nH]2)cc1 (configuration not stated),"inconclusive [cytotoxic, single point]",
COc1ccc(Cl)c(Cn2c(NCC(C)O)nc3c2c(=O)n(C)c(=O)n3C)c1 (configuration not stated),,inactive: 5.66%
O=C(COc1ccc2ccccc2c1)NNC(=O)Cc1cccc2ccccc12,"inconclusive [cytotoxic, single point]",
CNc1nc(Nc2ccc(C)cc2C)c2sccc2n1,"inconclusive [cytotoxic, partial curve]",
Cc1nn(-c2ccccc2)cc1/C=N/NC(N)=S,,inactive: 2.41%
O=Cc1c(Cl)nc2ccccn2c1=O,"inconclusive [cytotoxic, partial curve]",
C#CC1(N2CCCCC2)CCCCC1,,inactive: 8.4%
Cn1c(=O)n(C)c2cc(NC(=O)c3cc4ccccc4o3)ccc21,"inconclusive [cytotoxic, single point]",
COC(=O)c1ccc(CNC(=O)C(NC(=O)c2ccco2)C(C)C)cc1 (configuration not stated),,inactive: 6.28%
Cc1cccc(NC(=O)CSc2nc3ccccc3c3nc(CCc4c(C)n[nH]c4C)nn23)c1,"inconclusive [cytotoxic, single point]",
O=C1C(=Cc2ccccc2[N+](=O)[O-])Cc2ccccc21,"inconclusive [cytotoxic, single point]",
CCCCC(=O)OCC(=O)N1N=C(c2c[nH]c3ccccc23)C(O)C1c1ccc(OC)cc1 (configuration not stated),"inconclusive [cytotoxic, single point]",
Cc1ccc(-n2c(SCC(=O)NCCC3=CCCCC3)nc3n[nH]c(C)c3c2=N)cc1Cl,active: 23.1 µM,
COc1cccc(C(=O)Oc2c(CN3CCOCC3)cc(Cl)c3cccnc23)c1,"inconclusive [cytotoxic, single point]",
COc1ccc(-c2cc(C)no2)cc1S(=O)(=O)Nc1cccc(CN2CCCC2)c1,,inactive: -41.6%
CC(Nc1nc(-c2ccc(F)cc2)cs1)c1nc2cc(Cl)c(Cl)cc2n1CCOCCO (configuration not stated),"inconclusive [cytotoxic, single point]",
O=C(c1c[nH]c(C(=O)N2CCN(c3ccccc3F)CC2)c1)c1cccc(Cl)c1Cl,active: 9.2 µM,
